Assay results: article PMC6005816
Read-outs that look alike come from different tables or passages of the source. No constants are given. Whether binding was seen depends on the method and setting. For part of these data: In cells and extracts the contact can be indirect. Some binding calls cover weakened binding; strength is not graded here. For part of these data: Where a sequence is shown, tags or fusion partners need not be part of it.

Chains of the proteins cited; added tags and fusions are not shown. Lines headed by an entry give the natural chain unless they say otherwise; changes in a name come on top. Residues count along the entry.
UniProt Q8N668: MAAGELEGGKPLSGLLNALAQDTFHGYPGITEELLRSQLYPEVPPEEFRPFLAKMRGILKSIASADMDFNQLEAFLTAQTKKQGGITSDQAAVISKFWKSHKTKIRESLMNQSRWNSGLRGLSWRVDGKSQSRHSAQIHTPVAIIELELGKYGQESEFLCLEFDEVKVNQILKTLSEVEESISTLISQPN
UniProt Q567U6: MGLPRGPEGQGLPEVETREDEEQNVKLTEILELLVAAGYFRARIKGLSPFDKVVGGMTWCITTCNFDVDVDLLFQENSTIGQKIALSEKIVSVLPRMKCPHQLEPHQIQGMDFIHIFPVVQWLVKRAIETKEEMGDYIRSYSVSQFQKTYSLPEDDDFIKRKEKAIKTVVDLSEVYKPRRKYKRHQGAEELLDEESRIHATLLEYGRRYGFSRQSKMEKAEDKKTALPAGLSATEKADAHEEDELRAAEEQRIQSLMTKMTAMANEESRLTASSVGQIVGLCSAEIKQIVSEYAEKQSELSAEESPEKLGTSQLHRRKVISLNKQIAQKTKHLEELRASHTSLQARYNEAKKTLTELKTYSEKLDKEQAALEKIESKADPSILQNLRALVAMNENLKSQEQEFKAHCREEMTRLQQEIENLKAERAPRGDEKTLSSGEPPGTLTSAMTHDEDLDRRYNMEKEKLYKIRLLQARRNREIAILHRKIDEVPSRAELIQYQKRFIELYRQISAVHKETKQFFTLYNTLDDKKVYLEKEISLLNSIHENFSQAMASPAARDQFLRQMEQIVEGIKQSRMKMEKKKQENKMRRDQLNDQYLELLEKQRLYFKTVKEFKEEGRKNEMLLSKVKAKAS
UniProt O60826: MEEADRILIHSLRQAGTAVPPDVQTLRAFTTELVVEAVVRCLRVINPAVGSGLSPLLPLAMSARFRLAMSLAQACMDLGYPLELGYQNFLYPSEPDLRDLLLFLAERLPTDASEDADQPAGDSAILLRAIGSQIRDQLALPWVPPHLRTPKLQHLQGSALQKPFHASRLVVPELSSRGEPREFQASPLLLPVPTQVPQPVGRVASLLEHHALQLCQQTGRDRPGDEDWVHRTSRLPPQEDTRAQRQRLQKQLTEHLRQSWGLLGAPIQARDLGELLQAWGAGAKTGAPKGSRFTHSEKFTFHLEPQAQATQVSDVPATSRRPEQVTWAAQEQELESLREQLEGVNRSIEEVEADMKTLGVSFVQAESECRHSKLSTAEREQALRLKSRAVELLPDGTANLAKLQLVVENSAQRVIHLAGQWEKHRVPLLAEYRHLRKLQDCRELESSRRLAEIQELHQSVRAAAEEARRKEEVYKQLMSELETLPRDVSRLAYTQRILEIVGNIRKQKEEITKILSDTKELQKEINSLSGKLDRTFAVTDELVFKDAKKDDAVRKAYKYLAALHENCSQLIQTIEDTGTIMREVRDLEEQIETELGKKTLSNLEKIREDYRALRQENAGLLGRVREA
myc-CCDC22 (1–322): residues 1-322 of O60826
myc-CCDC22 (1–143): residues 1-143 of O60826
myc-CCDC22 (144–627): residues 144-627 of O60826
myc-CCDC22 (323–627): residues 323-627 of O60826

T1: VPS33B-GFP (human) (UniProt Q9H267)
T1 sequence: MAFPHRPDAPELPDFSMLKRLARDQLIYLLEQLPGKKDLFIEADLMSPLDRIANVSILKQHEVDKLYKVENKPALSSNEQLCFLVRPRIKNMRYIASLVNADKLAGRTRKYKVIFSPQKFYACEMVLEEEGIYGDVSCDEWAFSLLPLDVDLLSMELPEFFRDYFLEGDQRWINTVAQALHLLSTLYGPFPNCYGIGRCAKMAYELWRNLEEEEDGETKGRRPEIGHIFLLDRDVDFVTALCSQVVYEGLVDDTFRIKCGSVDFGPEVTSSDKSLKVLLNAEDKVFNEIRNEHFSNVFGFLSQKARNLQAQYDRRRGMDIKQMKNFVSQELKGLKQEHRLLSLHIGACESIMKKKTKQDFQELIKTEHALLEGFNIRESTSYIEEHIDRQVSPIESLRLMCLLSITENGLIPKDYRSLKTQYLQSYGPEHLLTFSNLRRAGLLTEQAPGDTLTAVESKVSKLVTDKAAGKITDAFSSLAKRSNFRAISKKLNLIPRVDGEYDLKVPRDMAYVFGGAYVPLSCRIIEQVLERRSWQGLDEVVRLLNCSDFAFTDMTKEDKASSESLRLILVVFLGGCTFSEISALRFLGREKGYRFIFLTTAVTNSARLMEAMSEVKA

T2: GST-VIPAR, co-expressed in E. coli (UniProt Q9H9C1)
T2 sequence: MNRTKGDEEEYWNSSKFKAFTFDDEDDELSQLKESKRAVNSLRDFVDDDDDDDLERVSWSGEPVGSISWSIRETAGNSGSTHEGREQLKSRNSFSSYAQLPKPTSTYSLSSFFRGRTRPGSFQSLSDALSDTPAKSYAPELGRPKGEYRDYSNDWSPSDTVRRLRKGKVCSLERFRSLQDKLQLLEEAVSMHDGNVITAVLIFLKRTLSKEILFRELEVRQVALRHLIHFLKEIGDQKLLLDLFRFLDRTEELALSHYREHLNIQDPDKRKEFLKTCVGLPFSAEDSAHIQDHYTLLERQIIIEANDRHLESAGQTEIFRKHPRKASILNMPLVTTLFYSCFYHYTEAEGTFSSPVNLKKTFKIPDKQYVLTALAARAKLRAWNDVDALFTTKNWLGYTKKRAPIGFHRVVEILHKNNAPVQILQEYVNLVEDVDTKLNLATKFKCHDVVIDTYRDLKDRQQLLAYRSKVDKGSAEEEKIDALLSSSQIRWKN

T3: endogenous VIPAR (human (endogenous in HEK293 Flp-In T-REx, HEK293T)) (UniProt Q9H9C1)
T3 sequence: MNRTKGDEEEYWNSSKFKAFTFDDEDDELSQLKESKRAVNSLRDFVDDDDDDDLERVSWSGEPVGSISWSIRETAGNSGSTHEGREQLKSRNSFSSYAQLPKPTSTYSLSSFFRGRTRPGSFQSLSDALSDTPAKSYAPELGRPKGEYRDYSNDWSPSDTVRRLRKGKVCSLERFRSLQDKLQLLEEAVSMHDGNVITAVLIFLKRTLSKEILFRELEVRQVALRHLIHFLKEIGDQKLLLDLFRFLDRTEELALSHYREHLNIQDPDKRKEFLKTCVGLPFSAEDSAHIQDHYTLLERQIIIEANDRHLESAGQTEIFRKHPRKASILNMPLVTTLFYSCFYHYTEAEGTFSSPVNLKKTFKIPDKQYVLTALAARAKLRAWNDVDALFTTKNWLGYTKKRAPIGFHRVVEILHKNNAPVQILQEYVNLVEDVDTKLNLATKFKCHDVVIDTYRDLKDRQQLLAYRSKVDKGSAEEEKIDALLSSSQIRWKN


Assays:
[1] = target: endogenous COMMD1 (human (endogenous in HEK293T)) (UniProt Q8N668); assay: SEC; whole-cell fractionation: lysates of untransfected HEK293T cells (also THP-1, HaCaT, HGT-1; with or without 0.5 mM EDTA) on Superose 6 10/300 in 10 mM Tris pH 7.5, 150 mM NaCl, 0.5% NP-40; fractions immunoblotted
[2] = target: endogenous CCDC93 (human (endogenous in HEK293T)) (UniProt Q567U6); assay: as above
VPS33B-GFP (human) = target: T1, VPS33B-GFP (human); assay: co-IP; GFP-Trap on lysates of HEK293T cells transfected with VPS33B-GFP only; blotted for endogenous proteins
[3] = target: myc-CCDC22 T17A, expressed in HEK293T (human) (UniProt O60826); assay: co-IP; Myc-Trap on lysates of HEK293T cells transfected with full-length, point-mutant or truncated myc-CCDC22; blotted for endogenous proteins
[4] = target: myc-CCDC22 R321W, expressed in HEK293T (human) (UniProt O60826); assay: as above
[5] = target: myc-CCDC22 (1–322) (human) (UniProt O60826); assay: as above
[6] = target: myc-CCDC22 R128Q, expressed in HEK293T (human) (UniProt O60826); assay: as above
[7] = target: myc-CCDC22 E239K, expressed in HEK293T (human) (UniProt O60826); assay: as above
[8] = target: myc-CCDC22 (full length, 1–627), expressed in HEK293T (human) (UniProt O60826); assay: as above
[9] = target: myc-CCDC22 T30A, expressed in HEK293T (human) (UniProt O60826); assay: as above
[10] = target: myc-CCDC22 (323–627) (human) (UniProt O60826); assay: as above
[11] = target: T2, GST-VIPAR, co-expressed in E. coli; assay: pull-down + SEC; co-expression in E. coli B834(DE3); co-purified on glutathione sepharose 4B by the GST on VIPAR, then Superdex 200 10/300 GL in 20 mM Tris pH 7.5, 200 mM NaCl, 1 mM DTT; bands confirmed by mass fingerprinting
[12] = target: myc-CCDC22 T17A, expressed in HEK293T (human) (UniProt O60826); assay: co-IP; Myc-Trap on lysates of HEK293T cells transfected with full-length, point-mutant or truncated myc-CCDC22; blotted for endogenous proteins; remark: listed apart in the source
[13] = target: myc-CCDC22 R321W, expressed in HEK293T (human) (UniProt O60826); assay: as above; remark: listed apart in the source
[14] = target: myc-CCDC22 (323–627) (human) (UniProt O60826); assay: as above; remark: listed apart in the source
[15] = target: myc-CCDC22 (1–322) (human) (UniProt O60826); assay: as above; remark: listed apart in the source
[16] = target: myc-CCDC22 R128Q, expressed in HEK293T (human) (UniProt O60826); assay: as above; remark: listed apart in the source
[17] = target: myc-CCDC22 (144–627) (human) (UniProt O60826); assay: as above
[18] = target: myc-CCDC22 (1–143) (human) (UniProt O60826); assay: as above
[19] = target: myc-CCDC22 E239K, expressed in HEK293T (human) (UniProt O60826); assay: as above; remark: listed apart in the source
[20] = target: myc-CCDC22 T30A, expressed in HEK293T (human) (UniProt O60826); assay: as above; remark: listed apart in the source
[21] = target: T3, endogenous VIPAR (human (endogenous in HEK293 Flp-In T-REx, HEK293T)); assay: SEC; whole-cell fractionation: lysates of untransfected HEK293T cells (also THP-1, HaCaT, HGT-1; with or without 0.5 mM EDTA) on Superose 6 10/300 in 10 mM Tris pH 7.5, 150 mM NaCl, 0.5% NP-40; fractions immunoblotted

binding (VPS33B-GFP (human)) | binding [3] | binding [4] | binding [5] | binding [6] | binding [7] | binding [8] | binding [9] | Molecule | other results
– | – | – | – | – | – | – | – | endogenous CCDC22 (from UniProt O60826 1-627) | binding [1]: binds; binding [2]: binds
no binding | binds | binds | binds | binds | binds | binds | binds | endogenous COMMD1 (from UniProt Q8N668 1-190) | –
no binding | binds | binds | binds | binds | binds | binds | binds | endogenous CCDC93 (from UniProt Q567U6 1-631) | binding [10]: binds
– | – | – | – | – | – | – | – | VPS33B, co-expressed in E. coli (protein, UniProt Q9H267 1-617) MAFPHRPDAPELPDFSMLKRLARDQLIYLLEQLPGKKDLFIEADLMSPLDRIANVSILKQHEVDKLYKVENKPALSSNEQLCFLVRPRIKNMRYIASLVNADKLAGRTRKYKVIFSPQKFYACEMVLEEEGIYGDVSCDEWAFSLLPLDVDLLSMELPEFFRDYFLEGDQRWINTVAQALHLLSTLYGPFPNCYGIGRCAKMAYELWRNLEEEEDGETKGRRPEIGHIFLLDRDVDFVTALCSQVVYEGLVDDTFRIKCGSVDFGPEVTSSDKSLKVLLNAEDKVFNEIRNEHFSNVFGFLSQKARNLQAQYDRRRGMDIKQMKNFVSQELKGLKQEHRLLSLHIGACESIMKKKTKQDFQELIKTEHALLEGFNIRESTSYIEEHIDRQVSPIESLRLMCLLSITENGLIPKDYRSLKTQYLQSYGPEHLLTFSNLRRAGLLTEQAPGDTLTAVESKVSKLVTDKAAGKITDAFSSLAKRSNFRAISKKLNLIPRVDGEYDLKVPRDMAYVFGGAYVPLSCRIIEQVLERRSWQGLDEVVRLLNCSDFAFTDMTKEDKASSESLRLILVVFLGGCTFSEISALRFLGREKGYRFIFLTTAVTNSARLMEAMSEVKA | binding [11]: binds
– | – | – | – | – | – | – | – | endogenous VPS33B (protein, UniProt Q9H267 1-617) MAFPHRPDAPELPDFSMLKRLARDQLIYLLEQLPGKKDLFIEADLMSPLDRIANVSILKQHEVDKLYKVENKPALSSNEQLCFLVRPRIKNMRYIASLVNADKLAGRTRKYKVIFSPQKFYACEMVLEEEGIYGDVSCDEWAFSLLPLDVDLLSMELPEFFRDYFLEGDQRWINTVAQALHLLSTLYGPFPNCYGIGRCAKMAYELWRNLEEEEDGETKGRRPEIGHIFLLDRDVDFVTALCSQVVYEGLVDDTFRIKCGSVDFGPEVTSSDKSLKVLLNAEDKVFNEIRNEHFSNVFGFLSQKARNLQAQYDRRRGMDIKQMKNFVSQELKGLKQEHRLLSLHIGACESIMKKKTKQDFQELIKTEHALLEGFNIRESTSYIEEHIDRQVSPIESLRLMCLLSITENGLIPKDYRSLKTQYLQSYGPEHLLTFSNLRRAGLLTEQAPGDTLTAVESKVSKLVTDKAAGKITDAFSSLAKRSNFRAISKKLNLIPRVDGEYDLKVPRDMAYVFGGAYVPLSCRIIEQVLERRSWQGLDEVVRLLNCSDFAFTDMTKEDKASSESLRLILVVFLGGCTFSEISALRFLGREKGYRFIFLTTAVTNSARLMEAMSEVKA | binding [12]: binds; binding [13]: binds; binding [14]: binds; binding [15]: no binding; binding [16]: binds; binding [17]: binds; binding [18]: no binding; binding [19]: binds; binding [20]: binds; binding [21]: binds
